The term pIC50 denotes the negative decadic logarithm of the IC50, by convention in mol/L.

In the supplement of paper PMC4967469 one finds AUC and IC50 data, which are given here for five cell lines.

Common to all, as to experiment: Viability of human cancer cell lines after 72 h of drug (GDSC screen)
Compound in one assay: CC(C)c1ccccc1Cc1cc(C(=O)Nc2ccc(S(=O)(=O)c3ccccc3C(C)(C)C)cc2)c(O)c(O)c1O [TW-37]
Particulars: top dose 5 µM. As to the method:
(§1)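 Human cancer cell lines in 384-well plates, medium with 10% serum, drug for 72 h over a 256-fold dose range (nine 2-fold or five 4-fold steps up to the top dose). Adherent lines were fixed and stained with the nucleic acid dye Syto60, suspension lines read with resazurin; signal relative to control wells, capped at 0 and 100%. One two-parameter sigmoid per drug and line, fitted in a mixed model over all curves with the slope shared within a line.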

Compound in the next assay: Cc1ccc(Nc2cc(-c3cccc(N4C(=O)c5ccccc5C4=O)c3)ncn2)cc1NS(C)(=O)=O [KIN001-270]
The note with it: top dose 20 µM; top dose inferred. The method, then:
as §1

Compound in a further assay: C/C(O)=C(\C#N)C(=O)Nc1cc(Br)ccc1Br [LFM-A13]
The note with it: top dose 16 µM; top dose inferred. As to the method:
as §1

Compound in another assay: CCNC(=O)c1noc(-c2cc(C(C)C)c(O)cc2O)c1-c1ccc(CN2CCOCC2)cc1 [AUY922]
The note with it: top dose 0.256 µM; top dose inferred. As to the method:
as §1

Compound in the next assay: Cc1cn(-c2cc(NC(=O)c3ccc(C)c(Nc4nccc(-c5cccnc5)n4)c3)cc(C(F)(F)F)c2)cn1 [Nilotinib]
Particulars: top dose 2 µM. As to the method:
as §1

Compound in the next assay: Nc1ccn([C@@H]2O[C@H](CO)[C@@H](O)C2(F)F)c(=O)n1 [Gemcitabine]
The note with it: top dose 1.024 µM. The method, then:
as §1

Compound in a further assay: S=C(NCc1ccc2c(c1)OCO2)N1CCN(c2ncnc3c2oc2ccccc23)CC1 [MP470]
The note with it: top dose 20 µM; top dose inferred. The method, then:
as §1

Compound in a further assay: CC(O)(CS(=O)(=O)c1ccc(F)cc1)C(=O)Nc1ccc(C#N)c(C(F)(F)F)c1 [Bicalutamide]
The note with it: top dose inferred. The method, then:
as §1

Compound in a further assay: NC(=O)c1cccc(-c2cc(Nc3ccc(OC(F)(F)F)cc3)ncn2)c1 [GNF-2]
The note with it: top dose 1.28 µM; top dose inferred. The method, then:
as §1

Compound in the next assay: O=S(=O)(c1ccccc1)N(CC(F)(F)F)c1ccc(C(O)(C(F)(F)F)C(F)(F)F)cc1 [T0901317]
Particulars: top dose 10.24 µM; top dose inferred. The method, then: as §1

[1] abbreviates: top dose 1.024 µM, screen: GDSC drug entry 150.
Where [2] appears, read: top dose 10 µM, screen: GDSC drug entry 1502.

pIC50: −log10 of the molar value. IC50 is the fitted dose that halves viability relative to control wells, and lower means more sensitive; a limit (>, <) means that the fit lies beyond the doses tested. AUC sums up the same curve from the lowest dose to the 256-fold higher top dose; values near 1 show little effect. For part of these data: Any top dose called inferred is not printed in the source and was worked back from the curve model. For part of these data: An entry number marks a drug with two screens in the source, which often give different values.

Take DG-75 (Burkitt lymphoma, suspension): the AUC with TW-37 turned out to be 0.511; with KIN001-270, 0.977; with LFM-A13, 0.983; with AUY922 it was 0.943; in the assay with Nilotinib, 0.972; with Gemcitabine, 0.908. For the same cell line, the AUC with MP470 worked out at 0.941; with Bicalutamide (setting [1]), 0.986; with Bicalutamide (setting [2]) it was 0.965; in the assay with GNF-2 it was 0.987; with T0901317, 0.949. Besides, the pIC50 with TW-37 was 6.47; with KIN001-270, under 4.70; with LFM-A13 it was under 4.80; in the assay with AUY922 it was under 6.59; with Nilotinib, under 5.70; with Gemcitabine, under 5.99. Besides, the pIC50 in the assay with MP470 is under 4.70; with Bicalutamide (setting [1]) it was under 5.99; with Bicalutamide (setting [2]), under 5.00; with GNF-2, under 5.89; with T0901317, under 4.99.
In the case of “ATN-1 (T-cell lymphoblastic leukaemia, suspension)”, the AUC with TW-37 amounted to 0.619; with KIN001-270 it was 0.982; with LFM-A13, 0.984; in the assay with AUY922, 0.787; with Nilotinib, 0.955; with Gemcitabine, 0.124. In addition, the AUC with MP470 worked out at 0.954; in the assay with Bicalutamide (setting [1]), 0.984; with Bicalutamide (setting [2]), 0.951; with GNF-2, 0.97; in the assay with T0901317, 0.98. Besides, the pIC50 with TW-37 is 6.19; with KIN001-270 it was under 4.70; with LFM-A13, under 4.80; with AUY922 it was 6.99; in the assay with Nilotinib it was under 5.70; with Gemcitabine it was 8.34. Moreover, the pIC50 with MP470 was under 4.70; with Bicalutamide (setting [1]), under 5.99; with Bicalutamide (setting [2]), under 5.00; with GNF-2, under 5.89; with T0901317, under 4.99.
As for MSTO-211H (mesothelioma, adherent), the AUC in the assay with TW-37 turned out to be 0.681; with KIN001-270, 0.987; in the assay with LFM-A13, 0.99; with AUY922 it was 0.991; with Nilotinib, 0.963; with Gemcitabine, 0.782. Further, the AUC in the assay with MP470 stood at 0.707; in the assay with Bicalutamide (setting [1]), 0.99; in the assay with GNF-2, 0.991; with T0901317, 0.949. For the same cell line, the pIC50 with TW-37 is 6.02; in the assay with KIN001-270 it was under 4.70; with LFM-A13 it was under 4.80; with AUY922, under 6.59; with Nilotinib it was under 5.70; with Gemcitabine it was 6.41. The pIC50 with MP470 was 5.35; with Bicalutamide (setting [1]), under 5.99; with GNF-2, under 5.89; with T0901317, under 4.99.
As for NCI-H716 (large intestine, suspension), the AUC with TW-37 was found to be 0.624; with KIN001-270 it was 0.972; in the assay with LFM-A13 it was 0.979; with AUY922 it was 0.858; in the assay with Nilotinib, 0.745; in the assay with Gemcitabine, 0.978. For the same cell line, the AUC in the assay with MP470 is 0.98; with Bicalutamide (setting [1]) it was 0.982; with Bicalutamide (setting [2]), 0.959; with GNF-2, 0.981; with T0901317, 0.976. The pIC50 with TW-37 is 6.12; with KIN001-270, under 4.70; with LFM-A13, under 4.80; with AUY922, under 6.59; with Nilotinib, 6.11; with Gemcitabine, under 5.99. Moreover, the pIC50 in the assay with MP470 was under 4.70; with Bicalutamide (setting [1]) it was under 5.99; with Bicalutamide (setting [2]), under 5.00; in the assay with GNF-2 it was under 5.89; in the assay with T0901317 it was under 4.99.
With TK10 (kidney, adherent), the AUC in the assay with TW-37 stood at 0.573; with KIN001-270, 0.942; in the assay with LFM-A13, 0.933; with AUY922, 0.481; with Nilotinib it was 0.975; in the assay with Gemcitabine, 0.367. Besides, the AUC amounted to 0.941 in the assay with MP470; 0.981 with Bicalutamide (setting [1]); 0.978 with Bicalutamide (setting [2]); 0.977 in the assay with GNF-2; 0.98 in the assay with T0901317. Further, the pIC50 with TW-37 is 6.29; with KIN001-270 it was under 4.70; with LFM-A13, under 4.80; with AUY922, 7.85; with Nilotinib, under 5.70; with Gemcitabine it was 7.60. The pIC50 was under 4.70 with MP470; under 5.99 in the assay with Bicalutamide (setting [1]); under 5.00 with Bicalutamide (setting [2]); under 5.89 in the assay with GNF-2; under 4.99 with T0901317.
